In PubChem BioAssay AID938 (National Center for Advancing Translational Sciences (NCATS), 2007):
Among all 73,000 compounds or so, about 1,800 (2.5%) were called active. The shares of active, inactive and inconclusive entries below differ from those in the screen. Calls follow the shape of the dose curve; as a rule, active = well fitted activation curve with a large enough effect; inconclusive = small, poorly fitted or top-dose-only effect; inactive = no such curve, though single readings can be large or run the other way. No potency is given beside an inconclusive call; the fits are too rough.

Experiment: qHTS Assay for Agonists of the Thyroid Stimulating Hormone Receptor: Activators of Intracellular cAMP Concentrations in Parental HEK 293; also: nearly all actives have a fitted effect of over 55% in size
Details: parental HEK293 CNG cAMP sensor, membrane potential fluorescence; series mostly up to 57.1 µM
How it was run: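 Parental HEK 293 cells stably expressing a cAMP-gated CNG channel were loaded with membrane potential dye containing 100 uM RO 20-1724 for 60 min. Compound added for 30 min; depolarization read as fluorescence intensity at 590 nm.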
Potency is read from the fitted curve at half-maximal effect; tags tell the direction and shape of the fitted curve.

Question: Which Potency does the source give for CCOC(=O)Cc1c(C)c2c(C)nn(-c3ccccc3)c2oc1=O here?
Answer: inconclusive [activator, partial curve]

Question: For O=C(c1cc2n(n1)C(C(F)(F)F)CC(c1ccco1)N2)N1CCc2ccccc2C1 (stereo not given), which Potency is on record?
Answer: inactive

Question: With Cn1nc(C(=O)Nc2sccc2C(N)=O)ccc1=O as the compound, how does the Potency read?
Answer: inactive

Question: For CCc1nn(-c2cc(Cl)ccc2OC)c2c1C(=O)CCC2, which Potency is on record?
Answer: inconclusive [activator, single point]

Question: With Cc1cnc(NC(=O)c2ccc3c(c2)C(=O)N(Cc2ccco2)C3=O)s1 as the compound, how does the Potency read?
Answer: inactive

Question: For N#Cc1cc2cc3c(cc2nc1N1CCCCC1)OCCO3, which Potency is on record?
Answer: inconclusive [activator, single point]

Question: With COC(=O)CCn1nnc(-c2cccs2)n1 as the compound, how does the Potency read?
Answer: inactive

Question: For COc1ccc(C2c3c(oc4ccccc4c3=O)C(=O)N2CCN2CCOCC2)cc1OC (stereo not given), which Potency is on record?
Answer: inactive

Question: Which Potency does the source give for CCOC(=O)C1CCCN(S(=O)(=O)c2ccc(Br)s2)C1 (stereo not given) here?
Answer: inconclusive [activator, single point]

Question: For CC(C)(C)c1ccc(C(=O)/C=C2\NC(=O)CS2)cc1, which Potency is on record?
Answer: inactive

Question: Which Potency does the source give for COc1ccc(CN2CCN(c3ccccn3)CC2)cc1OCc1ccccc1 here?
Answer: inconclusive [activator, partial curve]

Question: For Cc1nc(N2CCOCC2)c2nc(-c3ccccc3)n(C(C)CN(C)C)c2n1 (stereo not given), which Potency is on record?
Answer: inconclusive [activator, single point]

Question: Which Potency does the source give for CC1=C(C(=O)OCC2CCCO2)C(c2ccncc2)C2=C(CCCC2=O)N1 (stereo not given) here?
Answer: inconclusive [activator, single point]

Question: Which Potency does the source give for COc1ccc(C(=O)CSc2nnc(-c3cc4ccccc4cc3O)n2Cc2ccco2)cc1 here?
Answer: inconclusive [activator, full curve, poor fit]

Question: For Cc1noc(C)c1-c1nccc(NCc2cccs2)n1, which Potency is on record?
Answer: inactive

Question: Which Potency does the source give for CC(C(=O)NC1CCCc2ccccc21)N1CCN(Cc2ccc3c(c2)OCO3)CC1 (stereo not given) here?
Answer: inconclusive [activator, single point]

Question: For CCc1c(C)nc(SCC(=O)c2ccc(C)c(C)c2)[nH]c1=O, which Potency is on record?
Answer: active: 25.1 µM

Question: For COc1cc(CN(C)CC(=O)c2[nH]c(C)c(C(C)=O)c2C)ccc1OC(F)F, which Potency is on record?
Answer: inconclusive [activator, partial curve]

Question: With O=C(Nc1ccc(S(=O)(=O)N2CCOCC2)cc1)c1ccco1 as the compound, how does the Potency read?
Answer: inconclusive [activator, single point]

Question: Which Potency does the source give for Cc1nnc(NC(=O)CCC(=O)N2CCN(CCc3ccccc3)CC2)s1 here?
Answer: inconclusive [activator, partial curve]

Question: With Cc1cc(C)nc(-n2nc(C)c(Sc3ccc(F)cc3)c2N)n1 as the compound, how does the Potency read?
Answer: inactive

Question: For CCN(CC(=O)Nc1ccc2c(c1)OCCO2)CC(=O)Nc1cc(C)on1, which Potency is on record?
Answer: inactive

Question: Which Potency does the source give for O=C(O)C1C2C=CC(C2)C1C(=O)NCc1ccoc1 (stereo not given) here?
Answer: inconclusive [activator, partial curve]

Question: Which Potency does the source give for CC(C(=O)N1CCc2ccccc21)N1CCc2ccccc2C1 (stereo not given) here?
Answer: inconclusive [activator, single point]

Question: Which Potency does the source give for COc1ccc(Cl)cc1NC(=O)c1ccco1 here?
Answer: inconclusive [activator, single point]

Question: With Cc1cc(Oc2ccc(Cl)cc2)nc(-c2ccccc2O)n1 as the compound, how does the Potency read?
Answer: inconclusive [activator, partial curve]

Question: For COC(=O)c1ccc(CSc2nc(C(F)(F)F)c3c(c2C#N)CCC3)o1, which Potency is on record?
Answer: inconclusive [activator, partial curve]

Question: For O=C(c1cc(-c2ccc(O)cc2)on1)N1CCc2ccccc2C1, which Potency is on record?
Answer: active: 20 µM

Question: For COc1ccc(CC(=O)Nc2c3c(nn2-c2cccc(Cl)c2)CS(=O)(=O)C3)cc1, which Potency is on record?
Answer: inconclusive [activator, partial curve]

Question: For Cc1ccc(S(=O)(=O)N[C@H]2COC(=O)C/C=C\[C@@H](C)[C@H](NS(=O)(=O)c3ccc(C)cc3)COC(=O)[C@H](C)NC(=O)C/C=C\[C@H]2C)cc1, which Potency is on record?
Answer: inconclusive [activator, single point]

Question: Which Potency does the source give for Fc1ccc2c(Cl)c(-c3nnc(-c4cccs4)o3)sc2c1 here?
Answer: inconclusive [activator, single point]

Question: Which Potency does the source give for C[C@@]1(C(NS(=O)(=O)c2cccc3cccnc23)c2ccc(-c3ccccc3)cc2)C[C@H]1C1CCCCC1 (stereo not given in full) here?
Answer: inactive

Question: For N#Cc1cccc(NC(=O)N2CC[C@@]3(CCCN(C(=O)c4csnn4)C3)C2)c1, which Potency is on record?
Answer: inactive

Question: For O=C1Nc2cc3c(cc2Sc2ccccc21)OCCO3, which Potency is on record?
Answer: inconclusive [activator, single point]

Question: Which Potency does the source give for COc1ccccc1NC(=O)N(c1c(N)n(Cc2ccccc2)c(=O)[nH]c1=O)C1CCCC1 here?
Answer: inconclusive [activator, partial curve]

Question: With COc1ccc(S(=O)(=O)N2CCCC(C(=O)Nc3ccc(OC)c(OC)c3)C2)cc1 (stereo not given) as the compound, how does the Potency read?
Answer: inactive

Question: With Cc1ccccc1C(=O)c1cccn1CC(=O)O as the compound, how does the Potency read?
Answer: inactive

Question: With CCCC(c1nnnn1C1CCCCC1)N1CCN(c2ncccn2)CC1 (stereo not given) as the compound, how does the Potency read?
Answer: inactive

Question: With CCCCC(CC)C(=O)NCc1ccccc1OC (stereo not given) as the compound, how does the Potency read?
Answer: inconclusive [activator, partial curve]

Question: For O=c1cnc2cnc(N3CCNCC3)nc2n1C1CC1, which Potency is on record?
Answer: inconclusive [activator, single point]

Question: For O=C(c1cnccn1)N1CCc2ccccc21, which Potency is on record?
Answer: inactive

Question: With Cc1nc2cnc(N3CCN(C)CC3)nc2n(C2CC2)c1=O as the compound, how does the Potency read?
Answer: inactive

Question: With COc1ccc(N(C(C)C(=O)NCc2ccco2)S(C)(=O)=O)cc1 (stereo not given) as the compound, how does the Potency read?
Answer: inconclusive [activator, single point]

Question: Which Potency does the source give for CCCCC(c1nnnn1C1CCCC1)N1CCN(C2CCCCC2)CC1 (stereo not given) here?
Answer: active: 2.51 µM

Question: With O=C(CN1C(=O)C2(OCCCO2)c2ccccc21)NCc1ccccc1 as the compound, how does the Potency read?
Answer: inconclusive [activator, single point]

Question: Which Potency does the source give for Cc1cccnc1NC(=O)COc1ccc2oc3c(c2c1)CCCC3 here?
Answer: inconclusive [activator, single point]

Question: Which Potency does the source give for CCC[C@@H]1C[C@@]1(CCC)[C@@H](NC(=O)c1ccccc1)c1ccc(C(=O)OC)cc1 here?
Answer: active: 7.94 µM

Question: With Cc1cc(C)n(Cc2cccc(F)c2)c(=O)c1C#N as the compound, how does the Potency read?
Answer: inactive

Question: With CN(Cc1ccco1)c1cc(-c2ccc3c(c2)OCO3)ncn1 as the compound, how does the Potency read?
Answer: inconclusive [activator, partial curve]

Question: With COc1cccc(C(=O)CN2C(=O)C(C)(C)Oc3ccc(C(=O)N4CCCCCC4)cc32)c1 as the compound, how does the Potency read?
Answer: inconclusive [activator, single point]

Question: For O=C1C(c2ccccn2)=[N+]([O-])c2ccccc21, which Potency is on record?
Answer: inactive

Question: With CCOC(=O)c1cnc(SCC(=O)c2ccc3c(c2)OCCO3)nc1N as the compound, how does the Potency read?
Answer: inconclusive [activator, partial curve]

Question: For CN(C)c1ccc(-c2nc(NCc3cccnc3)c3ccccc3n2)cc1, which Potency is on record?
Answer: inactive

Question: For Cc1c(C(=O)Nc2ccncc2)sc2nc(-c3ccccc3)cn12, which Potency is on record?
Answer: inconclusive [activator, partial curve]

Question: Which Potency does the source give for Fc1ccc(-c2nnn(Cc3nc4ccccc4s3)n2)cc1 here?
Answer: inconclusive [activator, partial curve]

Question: For c1ccc(-c2nnc(-c3ccco3)o2)cc1, which Potency is on record?
Answer: inactive

Question: For CCc1nnc(NC(=O)CSc2nnc(-c3ccc(O)cc3)n2-c2ccccc2)s1, which Potency is on record?
Answer: inactive

Question: Which Potency does the source give for O=c1c2c3nc4ccccc4nc3n(-c3cccc(F)c3)c2ncn1Cc1ccc2c(c1)OCO2 here?
Answer: inactive

Question: Which Potency does the source give for CCC(O)CNc1nc(-n2nc(C)cc2C)nc2sc3c(c12)CCCC3 (stereo not given) here?
Answer: inactive

Question: Which Potency does the source give for Cc1ccc(CNC(=O)CSc2nc(C)cc(C)c2C#N)cc1 here?
Answer: inconclusive [activator, partial curve]

Question: With C=CCOC(=O)c1[nH]c2c(c1C)C(=O)CC(c1cc(OC)c(OC)c(OC)c1)C2 (stereo not given) as the compound, how does the Potency read?
Answer: inconclusive [activator, partial curve]

Question: Which Potency does the source give for O=C(NCc1cccs1)c1ccc(Cl)s1 here?
Answer: inactive

Question: Which Potency does the source give for CCCn1c(=O)c2ccccc2n2c(SCCOc3ccc(OC)cc3)nnc12 here?
Answer: inconclusive [activator, partial curve]

Question: For COc1ccccc1-c1cc(=O)c2cc(O)ccc2o1, which Potency is on record?
Answer: active: 39.8 µM

Question: Which Potency does the source give for COc1cccc(C2N(c3cccc(Cl)c3)C(=O)C3CCCN32)c1OC (stereo not given) here?
Answer: inconclusive [activator, single point]

Question: For CCOC(=O)Cn1cnc2c(nnn2-c2ccc(C)cc2)c1=O, which Potency is on record?
Answer: inconclusive [activator, single point]

Question: For CC(=O)N1CCN(c2ccccc2NC(=O)COc2ccc(Cl)cc2Cl)CC1, which Potency is on record?
Answer: inactive

Question: Which Potency does the source give for COc1ccc2[nH]cc(CCNc3ccnc(-c4ccc5c(c4)OCO5)n3)c2c1 here?
Answer: inconclusive [activator, full curve]

Question: With C=CCn1c(SCc2ccccc2C#N)nnc1-c1cc(Br)ccc1O as the compound, how does the Potency read?
Answer: inconclusive [activator, single point]

Question: For Cc1ccc(C)c(N2CCN(Cc3nnnn3C3CCCCC3)CC2)c1, which Potency is on record?
Answer: inconclusive [activator, partial curve]

Question: For CCS(=O)(=O)N1CCC(C(=O)Nc2cc(Cl)ccc2O)CC1, which Potency is on record?
Answer: inactive

Question: With CSc1nsc(SCC(=O)N2CCc3ccccc32)n1 as the compound, how does the Potency read?
Answer: active: 25.1 µM

Question: With Cc1cc(NC(=O)C(C)C)ncc1NC(=O)Cc1ccccc1 as the compound, how does the Potency read?
Answer: inconclusive [activator, single point]

Question: With N#Cc1cccc(-c2nc(Nc3ccccc3)c3ccccc3n2)c1 as the compound, how does the Potency read?
Answer: inconclusive [activator, single point]

Question: For COCc1[nH]nc2c1C(c1ccc(F)cc1F)C(C#N)=C(N)O2 (stereo not given), which Potency is on record?
Answer: inconclusive [activator, single point]
